In PubChem BioAssay AID743279 (National Center for Advancing Translational Sciences (NCATS), 2014):
About 17,000 (4.7%) of roughly 360,000 compounds were called active. The shares of active, inactive and inconclusive entries below differ from those in the screen. Rule as the data show it: active = activity change below about -50%; inconclusive = mostly about -30% to -49%; inactive = weaker than that.

test: qHTS for Inhibitors of Inflammasome Signaling: IL-1-beta AlphaLISA Primary Screen; settings: THP-1 LPS/ATP IL-1B secretion, 16 h; at 57.5 µM, active compounds read low
Procedure, shortened: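 Secreted IL-1B measured by AlphaLISA bead assay after 16 h compound exposure of THP-1 cells; compounds (final up to 57.5 uM) added 1 h before LPS (250 ng/mL) and ATP (1.25 mM) stimulation; lower signal means less secretion.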
% is scaled to controls: 0 for no effect and ±100 for the full control effect.

Activity change, active:
COc1ccc(-c2cc(C(=O)OCC(=O)N3CCOCC3)c3ccccc3n2)cc1 -54.1%
CC(C)N(C(=O)N1CCN(c2ccnc3cc(Cl)ccc23)CC1)C(C)C -84.3%
COc1ccccc1N1CCN(C2=Nc3cccc4cccc2c34)CC1 -56.2%
Brc1ccc(OCCCCCN2CCOCC2)cc1 -59%

Activity change, inactive:
O=C(N/C(=C/c1ccc([N+](=O)[O-])cc1)C(=O)N1CCOCC1)c1ccco1 15.6%
CCOC(=O)c1csc(NC(=O)C2=COCCO2)n1 0%
O=c1[nH]c(=O)n(C2OC(CO)C(O)C2O)cc1N1CCOCC1 (stereo unspecified) -6.91%
Cc1nn(Cc2ccc(C(=O)Nc3ccc(C(=O)OC(C)C)cc3)o2)c(C)c1Cl 0%
COc1ccccc1NC(=O)Cc1noc(CSc2cccc[n+]2[O-])n1 0%
COc1cccc(CN(C)C(=O)c2[nH]c(C)c(C(C)=O)c2C)c1OC 52.9%
NC(CCc1ccccc1)c1csc(Nc2nccc(C(F)(F)F)n2)n1 (stereo unspecified) -18.2%

Activity change, inconclusive:
O=C(NC(c1ccc(Cl)cc1)c1cnccn1)C1CCN(Cc2ccc(Cl)cc2)CC1 (stereo unspecified) -43%
CCOC(=O)c1sc(NC(=O)c2ccccc2)cc1C -33.9%
O=C(CCN1C(=O)/C(=C/c2ccccc2Cl)SC1=S)NCCc1ccc(O)cc1 -49.5%
Cn1cncc1C#Cc1c(-c2ccsc2)sc2ccccc12 -41.6%
Fc1ccccc1CNC(=S)Nc1ccc(Cl)cc1 -43.3%
COC(=O)COc1cccc2c(=O)n(CC(=O)NCCc3ccc(OC)c(OC)c3)ccc12 -38.2%
CC(C)(c1ccccc1)c1ccc(OCCN2CCCC2)cc1 -41.4%
CC(C)CNC(=S)NNC(=O)c1csc2c1CCCC2 -40%
O=C1CCCC1C(=O)Nc1ccc2ccccc2c1 (stereo unspecified) -42.1%
Cc1cccc2c(N=O)c(O)[nH]c12 -34.4%
CN(C)/N=C/C=C1\CCC/C(=C/c2cccs2)C1=O -43.2%
Cc1ccc([N+](=O)[O-])cc1-c1ccc(/C=N/NC(=O)CN2CCOCC2)o1 -32.1%
O=C(c1ccc(F)cc1)c1c[nH]c(C(=O)NCc2ccco2)c1 -35.1%
CN1CCN(CC/C=C2/c3ccccc3Sc3ccc(S(=O)(=O)N(C)C)cc32)CC1 -37.5%
Cc1ccc(-c2ocnc2C(=O)Nc2ccccc2NC(=O)c2ccccn2)cc1 -37.4%
